Assay results from the supplement of paper PMC11417369.
± gives the standard deviation of the averaged measurements. This is one part of the list.

System: PfAP2-I AP2 domain 3 (GST-tagged)
Test: gcPBM binding intensity (ln(normalized median fluorescence intensity)); higher = stronger DNA binding
How it was run: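 For binding intensity, the highest Masliner-normalised natural-log median intensity across replicate spots of either probe orientation was taken. Protein bound to the array was stained with Alexa488 anti-GST antibody and scanned at 488 nm. The protein, GST-tagged P. falciparum DNA-binding domains from E. coli at about 25 μg on average, had been applied for 1 h to an Agilent 4 × 180k array of primer-extended double-stranded 36-bp intergenic genomic probes and negative controls.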

Row | Sequence | gcPBM binding intensity (ln)
1 | TATGAACTTTTGGGGGTGCCTTAAAATGTATATTCT | 11.2 ± 0.53
2 | TCCCAATTTATTATGTGTACTTATTATATACATATA [XGTACX_site4033] | 7.85 ± 0.38
3 | TATCAAAGTAGAAGAGATCGATGTCATATTGTGATG [GTGCAC_negctrl_site42] | 7.73 ± 0.75
4 | TATATAATATATTTATGTACGTATTTAAAAATTTAT [XGTACX_site160] | 7.79 ± 0.22
5 | TGTATTTATTAATGTACACACATGCGTATGTTCGTT [CACACA_site5892] | 7.92 ± 0.57
6 | GAAGGAAATAAATCAACACACATATATTATATATAT [CACACA_site2188] | 8.27 ± 0.42
7 | CATAAATATTTGTGTTGTACAAATATATATATTTAT [XGTACX_site7363] | 7.7 ± 0.48
8 | TTGTGTGAGCAAGTAGTGCATAATATAAATAAAAAA [GTGCAC_site9802] | 11.2 ± 0.54
9 | TGAAATTTGTTATATGCATGTAAAATATTACGACGA [TGCATGCA_site201] | 8.28 ± 0.76
10 | AAAATTGAAGGTAGAAGTACATATTTATTTCAATAA [XGTACX_site8732] | 7.58 ± 0.52
11 | ATAGAATATTTTATTACACACAGAATAATAAAAAAT [CACACA_site6190] | 7.63 ± 0.52
12 | TTATTTTTTTTAGCATATACAAATATATATATATAT [GTGCAC_negctrl_site4] | 9.24 ± 0.26
13 | CTAAAAGGATGATGAATGCACTATTATTTATATGGA | 10 ± 0.2
14 | AAGAATTATTTTTTATGTACTTATATGTCAATTTTC [XGTACX_site6676] | 7.85 ± 0.42
15 | AAAAAAAAGGAAATAACACACATGTATATATTTATA [CACACA_site1606] | 7.46 ± 0.46
16 | CACCATGTTAACAATACATGCATCACTATATAAATG [TGCATGCA_site36] | 7.96 ± 0.74
17 | AGTAATTATTTTAGAGTGCATAGTTTTTTAATAAAT | 9.54 ± 0.18
18 | AAATATATTTTTAATAGTACAATATGAAAATTTCAT [XGTACX_site2562] | 7.63 ± 0.51
19 | TTTTTTTTTTTTTTTTGTACTCATACATACTATTAT [XGTACX_site989] | 8.07 ± 0.57

Row | Sequence | gcPBM binding intensity (ln)
20 | GTACACATATATATATATATATATATATATATATAT [CACACA_negctrl_site800] | 9.3 ± 0.58
21 | TAATTTTCATGTTCATGTACTTAAATATAAGGTAAA [XGTACX_site3284] | 7.74 ± 0.45
22 | ATTCATAACAAAAAAAGTACTCAAAATAATAATAAA [XGTACX_site6079] | 7.76 ± 0.58
23 | TGCCTTATTAAAAGAATTACACATATTTAATCGAAA [GTGCAC_negctrl_site153] | 7.68 ± 0.28
24 | ATAAAAAAATAAATAACACACAAAATTACACGAAAA [CACACA_site3620] | 8.06 ± 0.7
25 | TATTAAAAAATTATATGTACACATTTGTTATATACA [XGTACX_site2232] | 7.91 ± 0.092
26 | TTCTTTATATATGTTCGTACATATTATTATAATACA [XGTACX_site1549] | 8.14 ± 0.49
27 | AATTAAAGGAATTACAACTTTGCAAGCGCAACATAA [CACACA_negctrl_site1411] | 7.54 ± 0.64
28 | TATGTCCATATTTCCACACACATATTATTTTTATAT [CACACA_site3798] | 8.18 ± 0.53
29 | ACGTTACATACATATACACACACATATATATATATA [CACACA_site8203] | 9.22 ± 0.39
30 | TATATATATTATTATGCATGTAATAAAACAAATAAT [TGCATGCA_site625] | 8.53 ± 0.72
31 | GGTGGTGGTGGGTGGGTGCTTCTATTATTATATTAT [GTGCAC_site9391] | 10.7 ± 0.47
32 | GATGTTTCTATTTTAGTGCATTTTAAATAAATAAAT | 10.4 ± 0.12
33 | CTTAGGTGTTCATAGAGTACAAATAAAAAAATAAGA [XGTACX_site2294] | 8.04 ± 0.83
34 | ATATATATTTTAATAACACACATATATTATATTATA [CACACA_site4387] | 8 ± 0.35
35 | TCATTCTAAATATAAACACACATAAATAAATACATT [CACACA_site5788] | 7.67 ± 0.57
36 | ATTTCTTCTTTTTTTGTGAAACTGGAATATATATAT [XGTACX_negctrl_site527] | 8.55 ± 0.34
37 | AATATTTCTTTAATTTGTACATATAAGGGAAAATAA [XGTACX_site6221] | 7.97 ± 0.35
38 | TTTTATTAATATTGCATGCACACTATATAATAATTG [CACACA_site1049] | 8.73 ± 0.49

Row | Sequence | gcPBM binding intensity (ln)
39 | CGGAAAAATTAAAGCACACAAAAAAAAATAAAAAAA [CACACA_site1133] | 9.86 ± 0.55
40 | TTTTTATTATTTTAAAGTACTCTTTAGTAATTCCCT [XGTACX_site5863] | 7.59 ± 0.77
41 | AAAAAACATACATACACACACATAAATATTTATATT [CACACA_site7300] | 7.84 ± 0.44
42 | CACAGATAAATTAACACACACACACCGATATATATA [CACACA_site6049] | 8.33 ± 0.57
43 | AGAAAAAACAAAAGAGAAATGAAAAAAAAAAAAAAA [XGTACX_negctrl_site482] | 7.86 ± 0.66
44 | TAAAATAATATTTATGTGCACATATAATTATTAATT | 10.395 ± 0.007
45 | ATATATATTTTTATAACACACAATGATGTACATTAC [CACACA_site1076] | 8.06 ± 0.42
46 | TTTGTGCTTATCCTAACACACACAACATATAAGAAA [CACACA_site9091] | 8.87 ± 0.092
47 | TTATATATACCATAATGTACTCTATTATATAAAAAA [XGTACX_site7464] | 7.96 ± 0.45
48 | TGTGTAGCTAGGGGGTTGCTAATTTTTGTTTTGACC [CACACA_negctrl_site634] | 9.02 ± 0.26
49 | GTCTCCTTTATTTTTGGTACAGATAAGATAAAAGGA [XGTACX_site1591] | 8.1 ± 0.28
50 | AATCAAAATATATCTACACACATTTAAGTAACCCAT [CACACA_site5846] | 7.78 ± 0.68
51 | TATAACATTATTTTGTGTACACATTCGGTTATATTA [XGTACX_site6310] | 7.83 ± 0.5
52 | GTGTTCATATATAGCCGTACATATGTCTTATGAACG [XGTACX_site5647] | 8.07 ± 0.26
53 | ATTATCAAAAAAAAAAAAAAAAAAAAAAAAAAAAAA [CACACA_negctrl_site1118] | 8.33 ± 0.85
54 | ATATAGATCTATAATACACACTTATGAAATGTCTAA [CACACA_site6946] | 7.78 ± 0.48
55 | TTGTTTCCGATGAAAGAAAGGAAATTATAATATATC [GTGCAC_negctrl_site516] | 7.81 ± 0.57
56 | GATTCATTTCGTAATACACACAACAAATATTTCAAA [CACACA_site1772] | 8.1 ± 0.43
57 | AATGTAAATAAGTGTACACATATATAATACATACAT [CACACA_site4938] | 8.36 ± 0.099
